These results are taken from the antibiotic and cytotoxicity screens of Wong et al. (2023).

One assay has as its system HSkMC. The assay can be described thus: cytotoxicity call (relative viability < 0.9). To be noted: 10 µM.
In the next assay the test system is HepG2. The assay can be described thus: cytotoxicity call (relative viability < 0.9). To be noted: 10 µM.
A further assay relates to S. aureus RN4220. As to the kind of experiment: growth inhibition call (relative growth <= 0.2). Conditions: 50 µM.

SMILES strings stand for the structures. The list shows a part of the results.

Regarding `CN1CCN(C(=O)CC#N)CC1`, the cytotoxicity call with HSkMC and with HepG2 was “inactive” throughout. The growth inhibition call with S. aureus RN4220 is “inactive”.
Consider `COc1ccc2c3c([nH]c2c1)[C@@H](CO)N(C[C@]13CCN(CC1)S(=O)(=O)c1cn(cn1)C)C(=O)Nc1ccc(cc1)F`, for which the cytotoxicity call with HSkMC and with HepG2 was “inactive” in each case. Further, in the assay with S. aureus RN4220, the growth inhibition call was “inactive”.
As to `C[C@@H]1CN([C@@H](C)CO)C(=O)c2cc(NC(=O)c3ccncc3)ccc2O[C@H]1CN(C)S(=O)(=O)c1ccc(F)cc1`, the cytotoxicity call in the assay with HSkMC and with HepG2 was “inactive” throughout. Besides, in the assay with S. aureus RN4220, the growth inhibition call is “inactive”.
Consider `C[C@H]1CN([C@@H](C)CO)C(=O)c2cccc(NS(C)(=O)=O)c2O[C@@H]1CN(C)Cc1ccc(C(F)(F)F)cc1`, for which the cytotoxicity call with HSkMC and in the assay with HepG2 was “inactive” throughout. The growth inhibition call in the assay with S. aureus RN4220 is “inactive”.
Turning to `CCCN(C)C[C@H]1OCCCC[C@@H](C)Oc2ccc(NS(C)(=O)=O)cc2C(=O)N([C@H](C)CO)C[C@@H]1C`, the cytotoxicity call with HSkMC and in the assay with HepG2 was “inactive” each time. Further, the growth inhibition call in the assay with S. aureus RN4220 is “inactive”.
For the compound `Cc1noc(C)c1S(=O)(=O)N(C)C[C@@H]1Oc2ccc(NC(=O)Nc3ccc4c(c3)OCO4)cc2CC(=O)N([C@@H](C)CO)C[C@@H]1C`, the cytotoxicity call in the assay on HSkMC and in the assay with HepG2 was “inactive” each time. For the same compound, the growth inhibition call in the assay with S. aureus RN4220 is “inactive”.
Regarding `OCCN1CCCNCC1`, the cytotoxicity call with HSkMC and in the assay with HepG2 was “inactive” in each case. Besides, in the assay with S. aureus RN4220, the growth inhibition call was “inactive”.
As for `C[C@@H]1CCCCO[C@@H](CN(C)Cc2ccccc2)[C@H](C)CN([C@@H](C)CO)C(=O)c2cc(NC(=O)c3ccncc3)ccc2O1`, the cytotoxicity call in the assay on HSkMC and with HepG2 was “inactive” in each case. The growth inhibition call with S. aureus RN4220 was “inactive”.
With `COc1ccc(S(=O)(=O)N[C@@H]2C=C[C@H](CC(=O)N3CCN(c4ccccc4)CC3)O[C@H]2CO)cc1`, the cytotoxicity call in the assay on HSkMC and with HepG2 was “inactive” each time. In addition, the growth inhibition call in the assay with S. aureus RN4220 was “inactive”.
On to `C[C@H]1CN([C@@H](C)CO)C(=O)c2cc(NC(=O)CCC(F)(F)F)ccc2O[C@@H]1CN(C)S(=O)(=O)c1cn(C)cn1`, for which the cytotoxicity call with HSkMC and in the assay on HepG2 was “inactive” each time. Moreover, in the assay on S. aureus RN4220, the growth inhibition call was “inactive”.
For the compound `CO[C@@]1(CNC(=O)c2ccno2)CCSC1`, the cytotoxicity call in the assay on HSkMC and with HepG2 was “inactive” in each case. Besides, the growth inhibition call with S. aureus RN4220 is “inactive”.
As for `CON=C1CN(c2nc3c(cc2F)c(=O)c(C(=O)O)cn3C2CC2)CC1CN.CS(=O)(=O)O` (configuration not stated), the cytotoxicity call in the assay on HSkMC and in the assay on HepG2 was “inactive” in each case. In addition, the growth inhibition call in the assay on S. aureus RN4220 was “active”.
For `C[C@H]1CCCCO[C@H](CN(C)S(=O)(=O)c2ccccc2)[C@@H](C)CN([C@@H](C)CO)C(=O)c2cc(NC(=O)Nc3ccc(C(F)(F)F)cc3)ccc2O1`, the cytotoxicity call in the assay on HSkMC was “inactive”. In addition, the cytotoxicity call in the assay on HepG2 is “active”. Also, the growth inhibition call in the assay on S. aureus RN4220 is “inactive”.
Turning to `C[C@H](CO)N1C[C@H](C)[C@H](CN(C)S(=O)(=O)c2cn(C)cn2)Oc2ncc(C#Cc3ccc(F)cc3)cc2C1=O`, the cytotoxicity call in the assay on HSkMC and in the assay on HepG2 was “inactive” throughout. For the same compound, the growth inhibition call with S. aureus RN4220 was “inactive”.
For the compound `NCc1ccccc1-n1cccn1`, the cytotoxicity call with HSkMC and with HepG2 was “inactive” in each case. In the assay with S. aureus RN4220, the growth inhibition call was “inactive”.
`Cc1noc(C)c1S(=O)(=O)Nc1cccc2c1O[C@H](CN(C)Cc1ccccc1)[C@H](C)CN([C@@H](C)CO)C2=O`: the cytotoxicity call in the assay on HSkMC and in the assay on HepG2 was “inactive” throughout. Also, the growth inhibition call in the assay with S. aureus RN4220 is “inactive”.
Consider `CN1C(CC(=O)c2ccccc2)CCCC1CC(O)c1ccccc1.Cl` (configuration not stated), for which the cytotoxicity call in the assay with HSkMC and with HepG2 was “inactive” in each case. Moreover, the growth inhibition call with S. aureus RN4220 was “inactive”.
As for `CC(C)NC(=O)N(C)C[C@@H]1OCCCC[C@@H](C)Oc2ccc(NC(=O)Nc3ccc(F)cc3)cc2C(=O)N([C@H](C)CO)C[C@@H]1C`, the cytotoxicity call in the assay with HSkMC and in the assay with HepG2 was “inactive” throughout. The growth inhibition call with S. aureus RN4220 was “inactive”.
Take `COc1ccccc1CNC(=O)C[C@@H]1CC[C@@H]2[C@H](COC[C@@H](O)CN2C(=O)Nc2ccc(F)cc2)O1`: the cytotoxicity call with HSkMC and in the assay on HepG2 was “inactive” each time. For the same compound, the growth inhibition call in the assay on S. aureus RN4220 was “inactive”.
On to `COc1ccc(S(=O)(=O)Nc2ccc3c(c2)C(=O)N([C@@H](C)CO)C[C@@H](C)[C@H](CN(C)C(=O)Nc2cccc4ccccc24)OCCCC[C@H](C)O3)cc1`, for which the cytotoxicity call in the assay with HSkMC and in the assay on HepG2 was “inactive” throughout. In the assay on S. aureus RN4220, the growth inhibition call is “inactive”.
Consider `C[C@@H]1CN([C@@H](C)CO)C(=O)c2cc(NC(=O)Nc3cccc4ccccc34)ccc2O[C@@H](C)CCCCO[C@H]1CN(C)Cc1ccc(C(F)(F)F)cc1`, for which the cytotoxicity call in the assay on HSkMC and with HepG2 was “inactive” in each case. Besides, in the assay on S. aureus RN4220, the growth inhibition call is “inactive”.
Turning to `COc1ccc2c3c([nH]c2c1)[C@@H](CO)N(C[C@]13CN(C1)S(=O)(=O)C)C(=O)c1cnccn1`, the cytotoxicity call with HSkMC and in the assay with HepG2 was “inactive” throughout. The growth inhibition call in the assay with S. aureus RN4220 was “inactive”.
Regarding `Cc1noc(C)c1NC(=O)N(C)C[C@H]1Oc2c(NC(=O)C3CC3)cccc2C(=O)N([C@@H](C)CO)C[C@H]1C`, the cytotoxicity call in the assay with HSkMC and in the assay with HepG2 was “inactive” throughout. For the same compound, the growth inhibition call in the assay on S. aureus RN4220 is “inactive”.
Consider `CC(C)C[C@H](NC(=O)[C@H](CCCCN)NC(=O)CNC(=O)[C@H](CC(C)C)NC(=O)[C@@H](NC(=O)[C@@H]1CSSC[C@H](N)C(=O)N[C@@H](CO)C(=O)N[C@@H](CC(N)=O)C(=O)N[C@@H](CC(C)C)C(=O)N[C@@H](CO)C(=O)N[C@@H]([C@@H](C)O)C(=O)N1)C(C)C)C(=O)N[C@@H](CO)C(=O)N[C@@H](CCC(N)=O)C(=O)N[C@@H](CCC(=O)O)C(=O)N[C@@H](CC(C)C)C(=O)N[C@@H](Cc1c[nH]cn1)C(=O)N[C@@H](CCCCN)C(=O)N[C@@H](CC(C)C)C(=O)N[C@@H](CCC(N)=O)C(=O)N[C@H](C(=O)N[C@@H](Cc1ccc(O)cc1)C(=O)N1CCC[C@H]1C(=O)N[C@@H](CCCNC(=N)N)C(=O)N[C@H](C(=O)N[C@@H](CC(=O)O)C(=O)N[C@H](C(=O)NCC(=O)N[C@@H](C)C(=O)NCC(=O)N[C@H](C(=O)N1CCC[C@H]1C(N)=O)[C@@H](C)O)C(C)C)[C@@H](C)O)[C@@H](C)O`, for which the cytotoxicity call in the assay on HSkMC (human skeletal muscle cells) and in the assay on HepG2 was “inactive” throughout. Also, the growth inhibition call in the assay with S. aureus RN4220 was “inactive”.
